Source: PubChem BioAssay AID360 (National Center for Advancing Translational Sciences (NCATS), 2006)
Screen size: about 48,000 compounds; about 550 (1.1%) were called active. Inconclusive results (about 4%) are left out. Rule as the data show it: active = potency below about 15 µM; inconclusive = mostly about 16 µM to 33 µM; inactive = weaker than that. This is one part of the list.

target: Lysosomal acid glucosylceramidase (Homo sapiens) (UniProt P04062); assay: Glucocerebrosidase; conditions: purified enzyme, resorufin glucoside fluorescence (screen aimed at inhibitors), 20 min;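 also: the screen sought inhibitors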
Method in brief: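 Wild-type enzyme at 0.2 nM final in 50mM citric acid/KH2PO4, 10mM sodium taurocholate, 0.01% tween-20, pH 5.9, with resorufin beta-D-glucopyranoside at 30 uM final. Compounds titrated, 20 min at RT, red fluorescence read; AC50 from titration.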
Potency is read from the fitted curve at half-maximal effect.

Chain of UniProt P04062 (P04062 whole entry, looked up): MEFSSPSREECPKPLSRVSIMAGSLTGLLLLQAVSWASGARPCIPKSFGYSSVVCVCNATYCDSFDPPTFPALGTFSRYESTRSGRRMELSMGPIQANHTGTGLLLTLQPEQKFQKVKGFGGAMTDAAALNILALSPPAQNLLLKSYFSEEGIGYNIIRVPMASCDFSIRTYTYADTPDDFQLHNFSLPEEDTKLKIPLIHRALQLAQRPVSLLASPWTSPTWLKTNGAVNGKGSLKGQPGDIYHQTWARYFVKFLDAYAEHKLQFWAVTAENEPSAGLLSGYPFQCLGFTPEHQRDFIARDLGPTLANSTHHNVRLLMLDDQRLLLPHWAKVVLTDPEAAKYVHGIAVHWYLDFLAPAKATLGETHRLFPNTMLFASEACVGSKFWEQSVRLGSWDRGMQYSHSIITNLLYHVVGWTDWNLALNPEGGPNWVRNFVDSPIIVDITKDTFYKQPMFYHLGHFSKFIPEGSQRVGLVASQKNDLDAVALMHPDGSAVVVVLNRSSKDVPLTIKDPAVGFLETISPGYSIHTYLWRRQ

Potency, inactive:
Cn1c(=O)c2c(nc3sccn32)n(C)c1=O > 76.9 µM
CC(C)(C)NC(=O)c1ccccc1-c1nc(-c2ccccc2Cl)no1 > 76.9 µM
C=CCOc1cccc(C2C(C(=O)c3ccc(C)o3)=C(O)C(=O)N2Cc2ccncc2)c1 (stereo not drawn) > 76.9 µM
COC(=O)c1c(NC(=O)CN2CCN(c3ccccc3)CC2)c2c(C)cccc2n1C > 76.9 µM
c1ccc(Nc2c3c(nc4ncnn24)CCC3)cc1 > 76.9 µM
COc1cccc(C2CC(c3ccccc3Cl)n3nnnc3N2)c1 (stereo not drawn) > 76.9 µM
O=S(=O)(c1ccc(-c2nnc(SCc3nnc(-c4ccccc4)o3)o2)cc1)N1CCCC1 > 76.9 µM
O=C(COC(=O)c1ccc[nH]c1=O)NC1CCCC1 > 76.9 µM
CCCn1c(=O)c2ccccc2n2c(SCC(=O)Nc3cc(C)on3)nnc12 > 76.9 µM
O=S(=O)(Cc1ccccc1)/C1=C(\N2CCOCC2)CCCCCC1 > 76.9 µM
O=C(CCCN1C(=O)C2C3C=CC(C3)C2C1=O)N1CCN(c2ccccc2)CC1 (stereo not drawn) > 76.9 µM
O=C(OCCCN1CCCCC1)c1ccc(O)cc1 > 76.9 µM
Cn1nnnc1SCCNCC#Cc1ccccc1 > 76.9 µM
C=CCN1C(=O)C(C)(C)Nc2ccccc21 > 76.9 µM
O=c1[nH]c(=O)n(C2CCCCCC2)c(O)c1C=NCc1ccc(F)cc1 > 76.9 µM
CCOC(=O)N1CCC(NC(=O)CSc2cc(=O)n(C)c3ccc(Cl)cc23)CC1 > 76.9 µM
Cc1nc2cc(-c3cccc(F)c3)nn2c(N2CCOCC2)c1C > 76.9 µM
CCn1cc(C(=O)N2CC=C(c3ccccc3)CC2)c(=O)c2ccc(C)nc21 > 76.9 µM
Cc1ccc(C(C)C)c(OCC(O)CN2CCOCC2)c1 (stereo not drawn)
O=C(NCc1ccco1)c1ccc2nc3sc4c(c3c(=O)n2c1)CCCC4 > 76.9 µM
CCN1CCc2nc(NC(=O)c3ccc4c(c3)OCCO4)sc2C1 > 76.9 µM
Cn1c(C(F)(F)F)nc2c(=O)oc3ccccc3c21 > 76.9 µM
CC(C)=CCC/C(C)=C/CN(CC(C)O)CC(C)O (stereo not drawn) > 76.9 µM
COc1ccccc1N1CCN(S(=O)(=O)c2ccc(Cl)s2)CC1 > 76.9 µM
Cc1nn(CC(=O)O)c2ccccc12 > 76.9 µM
c1ccc(-c2noc(CSc3nnc(Cc4cccs4)n3-c3ccccc3)n2)cc1 > 76.9 µM
O=C(COc1ccccc1)Nc1nc(-c2cccs2)cs1 > 76.9 µM
CC(=O)Nc1nc2ccccc2n1CCOc1ccccc1Cl > 76.9 µM
O=C(O)c1ccc(NS(=O)(=O)c2ccc(Cl)cc2)cc1 > 76.9 µM
CC(C)NC(=O)c1ccccc1NC(=O)CN(c1ccc2c(c1)OCO2)S(C)(=O)=O > 76.9 µM
CCOCCCNCc1cccc(OC)c1 > 76.9 µM
CCn1c2ccccc2c2cc(C3C(C#N)=C(C)NC(C)=C3C#N)ccc21 > 76.9 µM
O=C(Nc1cccc(-c2nnc(-c3ccccc3)o2)c1)C1CCCCC1 > 76.9 µM
Cc1ccccc1CN1CCCNC1=O > 76.9 µM
CCOC(=O)CC1C(=O)NCCN1C(=O)COc1ccc(Br)cc1C (stereo not drawn) > 76.9 µM
O=S(=O)(NCCc1ccc2c(c1)OCCO2)c1cccs1 > 76.9 µM
C=CCn1c(N2CCCC2)nc2c1c(=O)[nH]c(=O)n2C > 76.9 µM
CN(Cc1nc2ccccc2n1C)S(C)(=O)=O > 76.9 µM
CCOC(=O)CSc1nc2c(sc(=S)n2CCc2ccccc2)c(=O)n1Cc1ccco1 > 76.9 µM
COc1cc2c3c(c1)C1(C(=O)N3C(C)(C)C=C2C)C(C#N)=C(N)Oc2cc(O)ccc21 (stereo not drawn) > 76.9 µM
CN1C(=O)c2oc3ccc(Br)cc3c(=O)c2C1c1ccncc1 (stereo not drawn) > 76.9 µM
CCOC(=O)C1CCN(C(=O)C2CC(=O)N(c3ccc(C)cc3)C2)CC1 (stereo not drawn) > 76.9 µM
Cc1ccnc(NC(=O)CCC2CCCCC2)c1
CCC(C)[C@H](NC(=O)NCc1cccs1)C(=O)O (stereo partly drawn) > 76.9 µM
COc1ccc(Cl)cc1NC(=O)CSc1nnc(COc2ccccc2)n1N > 76.9 µM
COc1cc2c(cc1OC)C(c1cccs1)NCC2 (stereo not drawn) > 76.9 µM
O=C(C1CC1)N(Cc1ccco1)c1nc(-c2ccccc2)cs1 > 76.9 µM
COC(=O)c1ccccc1NC(=O)N1CCN(S(=O)(=O)c2ccc(Cl)cc2)CC1 > 76.9 µM
CCc1ncc(C(O)c2cccc(OC)c2OC)n1C (stereo not drawn) > 76.9 µM
COc1cccc(S(=O)(=O)N2CCN(c3ccccc3F)CC2)c1 > 76.9 µM
COC(=O)c1[nH]c2ccc(C)cc2c1NC(=O)CN1CCCC(C)(C)C1 > 76.9 µM
COc1cc(OC)c(OC)cc1CN1CCCC(C(=O)N2CCCCC2)C1 (stereo not drawn) > 76.9 µM
Cc1cccc(-n2nc3c(c2NC(=O)c2ccc(Br)o2)CSC3)c1 > 76.9 µM
CC(C)C(=O)N(Cc1cc(=O)[nH]c2ccccc12)c1ccccc1 > 76.9 µM
O=C(CN1CCCC1)N1CCCc2c1c(=O)oc1ccc(OCc3ccccc3)cc21 > 76.9 µM
COC(=O)COc1ccc(S(=O)(=O)N2CCN(c3ccccc3F)CC2)cc1C > 76.9 µM
CC1(C)Cc2c(c(-c3ccco3)[nH]c(=O)c2C#N)CO1 > 76.9 µM
Cc1noc(C)c1CSc1ncnc2sc3c(c12)CCC3 > 76.9 µM
Nc1nnc2c(n1)CCCC2 > 76.9 µM
Cc1c(C(=O)NCCC2=CCCCC2)oc2ccc(S(=O)(=O)N3CCOCC3)cc12 > 76.9 µM
Cc1cccc(-n2c(O)c(C=Nc3ccc4c(c3)OCO4)c3ccccc3c2=O)n1 > 76.9 µM
C/C(=C\C(=O)c1ccc(C)o1)Nc1ccc2c(c1)OCO2 > 76.9 µM
CCS(=O)(=O)N1CCN(C(=O)CCC2CCCC2)CC1 > 76.9 µM
CCOC(=O)c1csc(Nc2nc3ccc(F)cc3s2)n1 > 76.9 µM
COC(=O)c1oc2ccc(Br)cc2c1NC(=O)c1ccccc1 > 76.9 µM
CC(C)OCCCn1c(=S)[nH]c2cc3c(cc2c1=O)OCO3 > 76.9 µM
CCc1nnc(NC(=O)CC(=O)Nc2ccccc2C(=O)O)s1 > 76.9 µM
O=C(Nc1ccccc1OC(F)F)c1ccccc1 > 76.9 µM
CCn1c(SCc2nc(-c3cccs3)no2)nnc1-c1c[nH]c2ccccc12 > 76.9 µM
O=C(O)c1ccccc1COc1ccccc1Cl > 76.9 µM
O=C(O)C1C2C=CC(O2)C1C(=O)NC1CCCc2ccccc21 (stereo not drawn) > 76.9 µM
COCCNC(=O)C(c1cccs1)N(CCc1ccccc1)C(=O)Cn1nnc2ccccc21 (stereo not drawn) > 76.9 µM
O=C1N2c3ccccc3CCc3cccc(c32)C1(O)C(F)(F)F (stereo not drawn) > 76.9 µM
CC1=CCC2C(=O)N(c3ccc(Br)cc3C)C(=O)C2C1 (stereo not drawn) > 76.9 µM
COc1cccc(-c2csc(N3CCN(CC(=O)Nc4ccc5c(c4)OCO5)CC3)n2)c1 > 76.9 µM
Clc1ccc(-c2nn3c(-c4ccccn4)nnc3s2)c(Cl)c1 > 76.9 µM
O=c1cc(CN2CCC3(CC2)OCCO3)c2c(ccc3ccccc32)o1 > 76.9 µM
Nc1nc(NC(=O)c2cccc(S(=O)(=O)N3CCCCCC3)c2)nc(-c2ccccc2)n1 > 76.9 µM
CCOC(=O)CNC(=O)c1sc(NC(=O)c2ccccc2F)nc1C > 76.9 µM
COC(=O)c1[nH]c2ccc(C)cc2c1NC(=O)CN1CCN(C(=O)c2ccccc2)CC1 > 76.9 µM
CC(=O)c1cccc(S(=O)(=O)N2CCC(n3nnc4cc(F)ccc43)CC2)c1 > 76.9 µM
Clc1ccc2nc(N3CCN(c4ccccc4)CC3)sc2c1 > 76.9 µM
COc1ccccc1NC(=O)Cc1noc(CSc2cc(C)c3ccccc3n2)n1 > 76.9 µM
Cc1cccc(N2CC(C(=O)O)CC2=O)c1 (stereo not drawn) > 76.9 µM
CCCCN(C)C(=O)C1CCN(Cc2ccccn2)CC1 > 76.9 µM
O=c1/c(=C/c2ccco2)sc2nc(-c3ccccc3Br)nn12
CCOC(=O)c1c(C)[nH]c2ccc(O)cc12 > 76.9 µM
Nc1nc(CSc2ccccn2)nc(Nc2ccccc2)n1 > 76.9 µM
COc1ccc(CN(Cc2cc3cc(C)ccc3[nH]c2=O)C(=O)N(C)C)cc1 > 76.9 µM
COc1ccc(C2C(C(=O)NCc3ccco3)CCC(=O)N2c2ccc(OC)cc2)cc1 (stereo not drawn) > 76.9 µM
COc1ccc(NC(=O)N2CC(C)OC(C)C2)cc1OC (stereo not drawn) > 76.9 µM
COc1ccc(C(=O)CSc2nnc(-c3ccc(S(=O)(=O)N4CCOCC4)cc3)o2)cc1 > 76.9 µM
Cc1nc(NC(=O)c2cccnc2)ccc1Br > 76.9 µM
